Among all 310,000 compounds or so, about 14,000 (4.5%) showed an effect of 50% or more. The effect is printed as a negative number. The list shows a part of the results.
target: human ether-à-go-go-related gene (hERG) potassium channel (human, UniProt Q12809); test: primary screen, population patch clamp on CHO cells stably expressing hERG
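Further: peak tail current of the secondary pulse compared with the same well before compound.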

Chain of human ether-à-go-go-related gene (hERG) potassium channel (Q12809 whole entry, looked up): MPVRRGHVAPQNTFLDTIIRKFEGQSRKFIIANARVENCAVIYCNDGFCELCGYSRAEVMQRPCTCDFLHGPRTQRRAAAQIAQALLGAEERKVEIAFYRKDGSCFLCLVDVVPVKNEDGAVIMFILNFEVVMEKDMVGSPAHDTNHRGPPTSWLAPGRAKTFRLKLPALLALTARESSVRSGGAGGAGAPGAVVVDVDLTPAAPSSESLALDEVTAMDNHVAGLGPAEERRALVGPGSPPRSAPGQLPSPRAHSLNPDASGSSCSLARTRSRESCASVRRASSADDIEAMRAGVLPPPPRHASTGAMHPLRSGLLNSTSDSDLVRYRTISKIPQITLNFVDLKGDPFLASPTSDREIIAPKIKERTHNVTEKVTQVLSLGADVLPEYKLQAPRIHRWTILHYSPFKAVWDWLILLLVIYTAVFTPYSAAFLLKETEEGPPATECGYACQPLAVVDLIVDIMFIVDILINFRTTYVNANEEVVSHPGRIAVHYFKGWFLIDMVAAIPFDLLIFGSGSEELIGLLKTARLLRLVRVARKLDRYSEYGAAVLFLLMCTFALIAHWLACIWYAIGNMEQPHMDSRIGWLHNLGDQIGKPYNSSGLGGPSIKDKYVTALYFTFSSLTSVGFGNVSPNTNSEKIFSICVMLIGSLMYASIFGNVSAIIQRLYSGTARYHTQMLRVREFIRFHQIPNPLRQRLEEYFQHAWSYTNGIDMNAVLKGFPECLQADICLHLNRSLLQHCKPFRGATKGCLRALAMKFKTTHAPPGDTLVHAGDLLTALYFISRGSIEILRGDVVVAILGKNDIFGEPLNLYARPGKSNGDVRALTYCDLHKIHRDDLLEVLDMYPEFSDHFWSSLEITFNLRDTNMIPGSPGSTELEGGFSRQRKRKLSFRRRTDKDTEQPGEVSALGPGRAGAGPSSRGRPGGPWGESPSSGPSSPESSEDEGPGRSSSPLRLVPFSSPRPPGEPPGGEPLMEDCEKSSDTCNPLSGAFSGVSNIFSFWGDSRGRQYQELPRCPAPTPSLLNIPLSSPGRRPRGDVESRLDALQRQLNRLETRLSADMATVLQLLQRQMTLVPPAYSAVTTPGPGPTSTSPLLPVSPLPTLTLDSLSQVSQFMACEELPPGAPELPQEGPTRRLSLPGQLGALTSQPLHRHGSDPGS

Row | SMILES | hERG current change (%, negative = inhibition) at 10uM
1 | COc1ccc(CNc2cccc(F)c2)cc1Br | -7.3%
2 | COC/C=C/C1=CC2=CC(=O)C(C)(OC(=O)c3cnc4ccccc4n3)C(=O)C2=CN1C1CCCCC1 (centres unmarked) | 7.4%
3 | CCc1c(C)[nH]n(-c2nc(-c3ccccc3)cs2)c1=O | 14.5%
4 | O=C1C=C(c2ccc3ncccc3c2)C[C@@H](c2ccc(Cl)cc2)C1 | -3.34%
5 | C[C@@H](NC(=O)c1nc[nH]c1C(=O)N1CCN(C(=O)OC(C)(C)C)CC1)c1ccccc1 | 4.5%
6 | CCOCCCNCc1cn(-c2ccc(F)cc2F)nc1-c1ccccc1C | -48%
7 | O=C1Nc2ccccc2S/C1=C\C(=O)N1CCCC1 | 12.3%
8 | O=C(NC1CCCCC1)N1CCC(n2cnc3ccccc32)CC1 | 8.95%
9 | O=C(/C=C/c1ccc(OCc2c(F)cccc2Cl)cc1)N1CCOCC1 | -30.1%
10 | C[C@@H]1CN(C2CCN(Cc3nc(C(c4ccccc4)c4ccccc4)no3)CC2)C[C@H](C)O1 | -38.6%
11 | Cc1cc(Cl)ccc1OC(C)C(=O)Nc1ccc(S(=O)(=O)N2CCOCC2)cc1 (centres unmarked) | 8.13%
12 | O=C(Nc1nnc(Cc2ccc([N+](=O)[O-])cc2)s1)Nc1ccccc1F | 22.9%
13 | COc1cc(/C=N/NC(=O)c2nnn(-c3nonc3N)c2C(C)C)ccc1OCc1ccc(F)cc1 | 31.1%
14 | Cc1ccc2c(CC(=O)NCc3ccco3)coc2c1C | -9.09%
15 | CC(=O)Nc1c(O)nc(SCC(=O)Nc2c(C)cccc2C)[nH]c1=O | 1.63%
16 | O=C(COC(=O)c1cc(Cl)ccc1Cl)NCCN1C(=O)CSC1=O | 8.32%
17 | Cc1nc(C(=O)NCC(=O)c2ccc(Cl)cc2)c(C(F)(F)F)o1 | 3.44%
18 | CSc1nnc(C)c(=O)n1COC(=O)COc1ccc(Cl)cc1Cl | -8.5%
19 | COc1cc(S(=O)(=O)NCc2ccc3c(c2)OCO3)ccc1F | -0.02%
20 | COc1ccc(C2C=C(C34CC5CC(CC(C5)C3)C4)NC(=S)N2)cc1OC (centres unmarked) | -26.4%
21 | COC(=O)C(C)Sc1ccc2nnc(-c3ccc(F)cc3)n2n1 (centres unmarked) | -27%
22 | O=C(N/N=C1\CC(c2ccccc2)Oc2ccccc21)c1ccc(O)cc1 (centres unmarked) | 12.4%
23 | Cc1ccc(NC(=O)C(=O)c2c(-c3ccccc3)cc3ccccn23)cc1S(=O)(=O)N1CCOCC1 | -16.7%

Row | SMILES | hERG current change (%, negative = inhibition) at 10uM
24 | Clc1ccc(-c2cn3c(n2)-c2ccccc2C3)cc1Cl | 5.44%
25 | CCOc1ccc(Cl)cc1S(=O)(=O)NCc1cccnc1 | -10.6%
26 | Cc1cc(C)c(S(=O)(=O)NCc2cn3ccccc3n2)c(C)c1 | 4.96%
27 | CC(Oc1cc2oc(=O)c3c(c2cc1Cl)CCCC3)C(=O)NCc1ccncc1 (centres unmarked) | -41.8%
28 | COc1ccccc1/C=C/C=N/n1c(-c2ccncc2)n[nH]c1=S | 21.9%
29 | CCOC(=O)C1CCCN(C(=O)COC(=O)C2=COCCO2)C1 (centres unmarked) | 9.77%
30 | O=C(c1ccccc1)c1ccccc1N/C=C/c1nnnn1-c1ccccc1 | 1.11%
31 | C/C(=N\Nc1nc(C)cc(-c2ccccc2)n1)c1ccc(C)o1 | -15.4%
32 | C#CCNC(=O)C1=C[C@H](C2CCCCC2)C[C@H](OCc2ccc(CO)cc2)O1 | -13.9%
33 | CCOc1ccccc1C1C2C(=O)N(c3ccccc3)C(=O)C2ON1c1ccccc1 (centres unmarked) | -37.1%
34 | CC(C)(C)c1ccc(O)c(N=Cc2cc3c(cc2[N+](=O)[O-])OCO3)c1 | -25.1%
35 | CCOC(=O)c1cnc2cc(C)ccn2c1=O | -7.41%
36 | CC(C)c1ccc(NC(=O)Nc2cc3sccc3n2C)cc1 | 22.2%
37 | CC(=O)c1c(C)[nH]c(C(=O)OCC(=O)Nc2ccc([N+](=O)[O-])cc2Cl)c1C | -5.81%
38 | O=C(O)c1nonc1-c1nonc1C(=O)O | -9.42%
39 | O=C(Nc1nnc(/N=C/c2ccco2)s1)c1ccc(F)cc1 | 11.8%
40 | O=C(COC(=O)c1cccs1)Nc1cccc(S(=O)(=O)NC2=NCCCCC2)c1 | -6.47%
41 | Nc1cc(-c2ccc(Br)cc2)nn1S(=O)(=O)c1cccc2nsnc12 | 5.71%
42 | COc1ccc(C(C#N)Nc2ccccc2OC)cc1 (centres unmarked) | -9.68%
43 | COc1ccc(C2C(=O)N(CCc3ccccc3)CC(=O)N2C2CCCCC2)cc1 (centres unmarked) | -28.9%
44 | COC12C(COC(N)=O)C3=C(C(=O)C(C)=C(N)C3=O)N1CC1C2N1C (centres unmarked) | 1.45%
45 | C=CCn1c(N)cc(=O)nc1SCC(=O)Nc1ccc(C)cc1 | 4.5%
46 | CN1C(=O)N(C)C(=O)C2(Cc3cc(N)ccc3N3CCN(c4ccccc4F)CC32)C1=O (centres unmarked) | -8.36%

Row | SMILES | hERG current change (%, negative = inhibition) at 10uM
47 | CCN(c1cc(C)cc(C)c1)S(=O)(=O)c1nnc(NC(=O)C(C)(C)C)s1 | 11.6%
48 | COc1ccc(S(=O)(=O)N2CCCCC2)cc1NC(=O)c1cnc(C)cn1 | 7.3%
49 | CCCCCCCNC1=CC(=O)CC(c2ccccc2)C1 (centres unmarked) | -81.3%
50 | C/C(N)=C(/C#N)C(=O)CSc1nnc(-c2ccc(OC(F)F)cc2)o1 | -5.31%
51 | Cc1ccc(N2CCN(S(=O)(=O)N3CCOCC3)CC2)cc1C | 13.2%
52 | COCCNC(=S)N/N=C(\C)c1ccc(Cl)s1 | -5.1%
53 | COC(=O)c1cccc(NC(=O)c2ccc(S(=O)(=O)N3CCN(C)CC3)cc2)c1 | -6.25%
54 | CCOC(=O)C1=c2s/c(=C\c3ccncc3)c(=O)n2C(N)=C(C(=O)OC)C1c1ccncc1 (centres unmarked) | 5.01%
55 | C[C@H]1CCC[C@]2(O[C@@H](CCO)C[C@H](O)[C@H]2O)O1 | 17.2%
56 | COc1ccccc1N1C(=O)CSC1=S | 10.5%
57 | COc1ccc(C(=O)Nc2sc(C)c(C)c2CN2CC(C)OC(C)C2)cc1 (centres unmarked) | 1.89%
58 | CCOc1ccc(/C=N/n2cc(-c3ccccc3)[nH]c2=S)cc1 | 29.9%
59 | COc1ccc(CCN2CC(C(=O)NC3CCOCC3)CCC2=O)cc1 (centres unmarked) | 9.78%
60 | Cc1ccccc1N=C(NO)c1nonc1N | 17.8%
61 | COc1ccc(NC(=O)CSc2nnc(CNc3ccc(F)cc3)o2)c(OC)c1 | 11.6%
62 | Cn1c(=O)c2c(ncn2CCCc2ccccc2)n(C)c1=O | -3.21%
63 | C[C@@H]1CCC[C@H](C)N1Cc1nc(Cc2ccccc2Cl)no1 | 6.26%
64 | O=C(O)/C=C\C(=O)O.S=C(NC1CCCCC1)N1CCC(c2cnc[nH]2)CC1 | -15.9%
65 | CC(C)CNC(=S)N1CCC(c2nc(-c3ccc(F)cc3)no2)CC1 | -59.1%
66 | COc1ccc(-c2nnc(SCCC(=O)O)n2-c2ccccc2)cc1 | 7.43%
67 | Oc1ccc(-c2c(C3=CCCCC3)sc3ccccc23)cc1 | 21.9%
68 | CCC(OC(=O)C1=Cc2ccccc2OC1)C(=O)NC1CCCC1 (centres unmarked) | -17.8%
69 | CCN(CC(=O)NCc1ccc(F)cc1)CC(O)COCc1cccc(OC)c1 (centres unmarked) | -60.6%

Row | SMILES | hERG current change (%, negative = inhibition) at 10uM
70 | Cn1c(=O)oc2cc(S(=O)(=O)Nc3cccc(C(=O)O)c3)ccc21 | 25.9%
71 | COC(=O)c1ccccc1NC(=O)Nc1cccnc1 | -0.802%
72 | C=CCNc1nc(C)c(CNc2c(C)cc(C)cc2C)nc1C#N | 12.3%
73 | CCn1c(SCC(=O)OC2CCCCC2)nc2ccccc2c1=O | -7.74%
74 | CCCCN1C(=O)C(O)(CC(=O)c2c(C)n[nH]c2C)c2cc(Br)ccc21 (centres unmarked) | -4.86%
75 | CSc1ccc(Cl)c(C(=O)N2CCOc3ccccc32)c1 | -28.4%
76 | O=C(CN1CCOCC1)Nc1ccc([N+](=O)[O-])cc1Br | -43.7%
77 | CC(=O)c1ccc(NC(=O)CSc2cn[nH]n2)cc1 | 13.6%
78 | Nc1cccc2c1C(=O)N(c1ccccc1)C2=O | -4.67%
79 | O=C(Cc1ccc(F)cc1)NCC1CCCO1 (centres unmarked) | 3.73%
80 | Cc1cc(C)c(NC(=O)CNC(=O)CN2C(=O)NC3(CCCc4ccccc43)C2=O)c(C)c1 (centres unmarked) | 7.03%
81 | CN1C2CCC1CC(OC(=O)c1cc(Cl)cc(Cl)c1)C2.Cl (centres unmarked) | -57.4%
82 | COc1ccc(C2CC(=O)c3cc(OC)c(OC)cc32)cc1OC (centres unmarked) | 20.7%
83 | CCN(CC)S(=O)(=O)c1cccc(-c2nnc(SCC(=O)c3cc(C)n(C4CC4)c3C)o2)c1 | 16.5%
84 | COc1ccc(/C=N/NC(=O)CNC(=O)C2COc3ccccc3O2)cc1OC (centres unmarked) | -15.7%
85 | CC(C)Oc1cccc(C(=O)Nc2ncn[nH]2)c1 | -0.876%
86 | CC1=C(C(=O)OC2CCCCC2)C(c2ccc(C)o2)C2=C(CCCC2=O)N1 (centres unmarked) | -0.762%
87 | CSc1nnnn1-c1cccc(O)c1 | -6.74%
88 | N#C/C(=C\c1ccc(O)c(O)c1)C(=O)Nc1ccccc1 | 6.48%
89 | O=C1Nc2ccc(S(=O)(=O)N3CCCC3)c3cccc1c23 | -7.57%
